The whole screen tested about 110,000 compounds, of which about 230 (0.21%) showed an effect of 50% or more. The list shows a part of the results.

This is an account of results in PMC6919601, “Identification of Plasmodium dipeptidyl aminopeptidase allosteric inhibitors by high throughput screening” (PLoS ONE, 2019).
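Also: 30 min substrate incubation versus DMSO and 10 µM JCP410 controls.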

The test deals with DPAP1 (Plasmodium falciparum, UniProt Q8IIJ9). The experiment in a line: primary screen, percent inhibition; read by cleavage of a fluorogenic dipeptide substrate; higher = more effect of the substance. More on the design: species or system P. falciparum D10 trophozoite lysates; single well.
DPAP1, sequence (Q8IIJ9 whole entry, looked up): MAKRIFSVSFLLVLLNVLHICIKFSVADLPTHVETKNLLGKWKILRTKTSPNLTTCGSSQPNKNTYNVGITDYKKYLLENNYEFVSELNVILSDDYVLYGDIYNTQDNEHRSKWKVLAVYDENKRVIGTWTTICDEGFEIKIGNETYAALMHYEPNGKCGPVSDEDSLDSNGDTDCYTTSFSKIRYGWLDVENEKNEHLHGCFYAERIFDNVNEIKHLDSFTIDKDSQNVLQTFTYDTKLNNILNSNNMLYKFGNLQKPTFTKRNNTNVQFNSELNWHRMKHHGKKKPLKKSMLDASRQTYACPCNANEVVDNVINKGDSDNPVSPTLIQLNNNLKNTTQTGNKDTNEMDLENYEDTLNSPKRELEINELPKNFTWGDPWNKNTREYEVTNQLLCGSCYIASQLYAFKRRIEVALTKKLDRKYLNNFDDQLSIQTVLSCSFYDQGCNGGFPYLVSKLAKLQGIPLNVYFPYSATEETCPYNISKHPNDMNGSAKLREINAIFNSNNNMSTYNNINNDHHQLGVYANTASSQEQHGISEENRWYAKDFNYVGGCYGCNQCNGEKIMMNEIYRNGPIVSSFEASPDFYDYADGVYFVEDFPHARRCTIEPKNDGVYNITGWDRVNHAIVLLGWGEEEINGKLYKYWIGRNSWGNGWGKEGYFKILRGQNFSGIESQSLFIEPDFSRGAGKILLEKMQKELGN
As to `Brc1cccc(CN2CCOCC2)c1`, the “% Inhibition @ 10 uM” value is reported as -7.93%.

`CCc1ccc(C2CC(=O)NC3=C2C(=O)CC(c2ccccc2Cl)C3)cc1` (stereo not drawn): the “% Inhibition @ 10 uM” value is given as -4.16%.

`Cc1cccc(-n2nnc(C(=O)NCc3ccccc3Cl)c2N)c1`: the “% Inhibition @ 10 uM” value was 8%.

Take `CCC(Oc1ccccc1)C(=O)Nc1nn2c(C)nnc2s1` (stereo not drawn): the “% Inhibition @ 10 uM” value worked out at 0.522%. Turning to `Cc1ccc(NC(=O)c2c(C)nn(-c3ccccc3)c2Cl)cc1`, the “% Inhibition @ 10 uM” value is -2.53%. As to `Cn1cnc2c(=O)oc3ccccc3c21`, the “% Inhibition @ 10 uM” value is -2.78%. For `C=C(C)CSc1nc2c(C)cccc2[nH]1` the value was 6.89%; for `COc1cccc(CNC(=O)c2cnn(-c3ccccc3)c2-n2cccc2)c1OC`, 3.29%; for `C/C(=C\C(=O)N1CCN(C)CC1)C(=O)O`, -0.128%. For `O=C1/C(=C\c2cccnc2)Sc2ccccc21` the value was -4.4%. For `O=C1CCC(=O)N1c1cccc2c(N3C(=O)CCC3=O)cccc12` the value was -4.46%; for `O=C(NCc1ccc2c(c1)OCO2)c1cc(O)nc2ccc(Br)cc12`, -1.79%; for `C=CCN(Cc1nc(-c2ccc(C)cc2)no1)S(=O)(=O)c1c(C)cc(C)cc1C`, 2.41%. With `CCN1C/C(=C\c2cccn2C)C(=O)/C(=C/c2cccn2C)C1`, the “% Inhibition @ 10 uM” value is on record as -1.31%. For `Brc1ccc(N2N=C(c3ccccc3)CC2c2ccccc2)cc1` (stereo not drawn), the “% Inhibition @ 10 uM” value is listed as -8.22%.

In the case of `Cc1ccccc1Cn1c(C)c(CNCc2ccco2)c(C(=O)O)c1C`, the “% Inhibition @ 10 uM” value is recorded as -0.23%. In the case of `CCC(=O)NC(C)c1nc2ccccc2n1Cc1ccccc1` (stereo not drawn), the “% Inhibition @ 10 uM” value is on record as 2.73%. The figure for `COc1cc(CN(C(=S)NCC(=O)O)C2CCCC2)cc(OC)c1OC` is -0.256%. The figure for `Cc1c(C)n(CCC#N)c2ccccc12` is 3.72%. For `Nc1c(C(=O)Nc2ccc3ccccc3c2)sc2nc3c(cc12)CCC3` the value was 2.38%. As to `COc1ccc(N2C(=O)C(Cl)=C(Nc3cc(C)cc(C)c3)C2=O)cc1`, the “% Inhibition @ 10 uM” value was found to be 2.68%.

In the case of `CC(=O)c1ccccc1OCC(O)Cn1ccnc1C` (stereo not drawn), the “% Inhibition @ 10 uM” value is reported as -1.11%. The figure for `Cc1ccc(N(CC(=O)Nc2ccc(C(N)=O)cc2)S(=O)(=O)c2ccccc2)cc1C` is 12.7%; for `CCCCn1c(=O)n(Cc2ccccc2Cl)c2c1c(=O)n(C)c(=O)n2C` it is -7.09%; for `CCc1nn2cc(-c3ccccc3OC)nc2s1` it is -2.71%. For `COc1nc2ccccc2nc1OC`, the “% Inhibition @ 10 uM” value is given as -1.45%. `Cn1c2c(c(=O)c3ccccc31)CCC(C)(C)O2`: the “% Inhibition @ 10 uM” value is listed as 0.709%. For `COc1ccc(-n2cccc2C=C2C(=O)NC(=O)NC2=O)cc1` the value was 3.86%; for `Cc1nnc2c(NCc3ccco3)nc3ccc(C(=O)c4ccccc4)cc3n12`, -6.09%; for `Cn1c(N2CCOCC2)nc2c1c(=O)n(Cc1c(F)cccc1Cl)c(=O)n2C`, 1.97%. The figure for `Cc1ccc(S(=O)(=O)NCCCCCC(=O)NC(C)(C)CO)cc1` is 3.87%; for `Cc1nc2ccc(S(=O)(=O)NC(C(=O)NC3CCCC(C)C3C)C(C)C)cc2s1` (stereo not drawn) it is 1.62%; for `COc1ccc(NC(=O)CNS(=O)(=O)c2ccc(C)cc2)cc1OC` it is -2.73%. For `Cc1nn(CCCC(=O)NCCCN2CCOCC2)c(=O)c2cc3sccc3n12` the value was 0.137%; for `O=C(c1nsc2ccccc12)N1CCCCC1`, 10.5%. Turning to `COc1ccc(C2CC(=O)Nc3c2c(=O)n(C)c2ncnn32)cc1OC` (stereo not drawn), the “% Inhibition @ 10 uM” value came out at 4.46%. For `O=C1c2ccccc2C(=O)N1Cc1ccc2c(c1)OCO2` the value was 2.39%; for `Cc1ccc(CNCc2cccn2-c2nnc(N3CCOCC3)s2)o1`, -1.61%; for `CCOc1cc(C2C3=C(CC(C)(C)CC3=O)OC3=C2C(=O)CC(C)(C)C3)c(Br)cc1O`, -0.173%. `COc1ccc(NC(=O)CN(c2ccccc2)S(=O)(=O)c2ccccc2)c(OC)c1`: the “% Inhibition @ 10 uM” value is on record as 0.0265%. For `Cc1cc2c(c(=O)n1CC1CCCO1)C(c1cc3c(cc1Br)OCO3)C(C#N)=C(N)O2` (stereo not drawn) the value was 2.31%; for `Cc1ccccc1Nc1nc(-c2ccc(Cl)cc2)c(C)s1`, 1.7%. For `CN(C)C(=O)N1CCCC(C(=O)NCc2ccccc2)C1` (stereo not drawn) the value was 2.05%; for `Cn1ccnc1SCC(=O)Nc1nc(-c2ccccc2)cs1`, 0.751%.

`COc1ccccc1-n1c(S)nnc1CNC(=O)c1ccc(S(=O)(=O)N2CCOCC2)cc1`: the “% Inhibition @ 10 uM” value is recorded as -3.98%. The figure for `CCOC(=O)C1=C(CC)OC(N)=C(C#N)C1c1ccc(C(F)(F)F)cc1` (stereo not drawn) is -5.96%.

Turning to `COCCCNC(=O)C1=CCN(S(=O)(=O)c2ccc(OC)cc2)CC1`, the “% Inhibition @ 10 uM” value was 1.93%. With `Cc1nn(-c2ccccc2)c2c1N(CC(=O)NCCCc1ccccc1)C(=O)CS2`, the “% Inhibition @ 10 uM” value came out at 0.762%.

Turning to `CCOc1cccc(NC(=O)c2ccc(C(C)(C)C)cc2)c1`, the “% Inhibition @ 10 uM” value worked out at 3.24%.

For `CC1=C(c2ccc(Cl)cc2)S(=O)(=O)N=C1N1CCC(C(=O)NCCC(C)C)CC1`, the “% Inhibition @ 10 uM” value is reported as -1.38%. For `COc1ccc2nc(C)c(C(=O)N3CCN(Cc4ccccc4)CC3)cc2c1` the value was 2.77%.
